Laboratory results taken from ChEMBL document CHEMBL1759970, “Design, synthesis and SAR of novel ethylenediamine and phenylenediamine derivatives as factor Xa inhibitors” (Bioorg Med Chem Lett, 2011).
Values after ≈ are worked out from the molar mass of the structure shown.

Key:
physchem [1] = conditions: buffer, pH 6.8
physchem [2] = conditions: buffer, pH 1.2
physchem [3] = conditions: octanol/water

Structure (SMILES)	solubility (physchem [1]) [µg/mL]	solubility (physchem [2]) [µg/mL]	logD (physchem [3])
CCOC(=O)c1ccc(NC(=O)c2cc3cc(Cl)ccc3[nH]2)c(NC(=O)c2nc3c(s2)CN(C)CC3)c1	< 1	2.7 (≈ 5.02 µM)	
COC(=O)C[C@@H](CNC(=O)c1cc2cc(Cl)ccc2[nH]1)NC(=O)c1nc2c(s1)CN(C)CC2	135 (≈ 276 µM)	> 1000	
CN1CCc2nc(C(=O)N[C@H](CNC(=O)c3cc4cc(Cl)ccc4[nH]3)CC(=O)O)sc2C1	432 (≈ 908 µM)	900 (≈ 1890 µM)	
CN1CCc2nc(C(=O)N[C@H](CNC(=O)c3cc4cc(Cl)ccc4[nH]3)CC(=O)N(C)C)sc2C1	140 (≈ 278 µM)	> 1000	
COC(=O)C[C@H](CNC(=O)c1cc2cc(Cl)ccc2[nH]1)NC(=O)c1nc2c(s1)CN(C)CC2	87 (≈ 178 µM)	813 (≈ 1660 µM)	
CN1CCc2nc(C(=O)N[C@@H](CNC(=O)c3cc4cc(Cl)ccc4[nH]3)CC(=O)O)sc2C1	544 (≈ 1140 µM)	938 (≈ 1970 µM)	
COC(=O)C[C@@H](CNC(=O)c1nc2c(s1)CN(C)CC2)NC(=O)c1cc2cc(Cl)ccc2[nH]1	93 (≈ 190 µM)	536 (≈ 1090 µM)	
CN1CCc2nc(C(=O)NC[C@H](CC(=O)O)NC(=O)c3cc4cc(Cl)ccc4[nH]3)sc2C1	39 (≈ 81.9 µM)	> 1000	
COC(=O)C[C@H](CNC(=O)c1nc2c(s1)CN(C)CC2)NC(=O)c1cc2cc(Cl)ccc2[nH]1	93 (≈ 190 µM)	237 (≈ 484 µM)	
CN1CCc2nc(C(=O)NC[C@@H](CC(=O)O)NC(=O)c3cc4cc(Cl)ccc4[nH]3)sc2C1	30 (≈ 63 µM)	786 (≈ 1650 µM)	
COC(=O)COc1ccc(NC(=O)c2cc3cc(Cl)ccc3[nH]2)c(NC(=O)c2nc3c(s2)CN(C)CC3)c1	< 1	51 (≈ 92.1 µM)	
COC(=O)COc1ccc(NC(=O)c2nc3c(s2)CN(C)CC3)c(NC(=O)c2cc3cc(Cl)ccc3[nH]2)c1	< 1	8 (≈ 14.4 µM)	
CCOC(=O)Cc1ccc(NC(=O)c2cc3cc(Cl)ccc3[nH]2)c(NC(=O)c2nc3c(s2)CN(C)CC3)c1	< 1	250 (≈ 453 µM)	
CN1CCc2nc(C(=O)Nc3cc(CC(=O)O)ccc3NC(=O)c3cc4cc(Cl)ccc4[nH]3)sc2C1	16 (≈ 30.5 µM)	22 (≈ 42 µM)	
CN1CCc2nc(C(=O)Nc3cc(OCC(=O)O)ccc3NC(=O)c3cc4cc(Cl)ccc4[nH]3)sc2C1	< 1	12 (≈ 22.2 µM)	
COC(=O)C(C)Oc1ccc(NC(=O)c2cc3cc(Cl)ccc3[nH]2)c(NC(=O)c2nc3c(s2)CN(C)CC3)c1 (stereo not given)	< 1	61 (≈ 107 µM)	
COC(=O)C(C)(C)Oc1ccc(NC(=O)c2cc3cc(Cl)ccc3[nH]2)c(NC(=O)c2nc3c(s2)CN(C)CC3)c1	< 1	37 (≈ 63.6 µM)	
CN1CCc2nc(C(=O)Nc3cc(OC(C)(C)C(=O)O)ccc3NC(=O)c3cc4cc(Cl)ccc4[nH]3)sc2C1	362 (≈ 637 µM)	71 (≈ 125 µM)	1.3
COC(=O)C(C)(C)COc1ccc(NC(=O)c2cc3cc(Cl)ccc3[nH]2)c(NC(=O)c2nc3c(s2)CN(C)CC3)c1	< 1	11 (≈ 18.5 µM)	
CN1CCc2nc(C(=O)Nc3cc(OCC(C)(C)C(=O)O)ccc3NC(=O)c3cc4cc(Cl)ccc4[nH]3)sc2C1	9 (≈ 15.5 µM)	4 (≈ 6.87 µM)	
COC(=O)C1(COc2ccc(NC(=O)c3cc4cc(Cl)ccc4[nH]3)c(NC(=O)c3nc4c(s3)CN(C)CC4)c2)CC1	< 1	22 (≈ 37 µM)	
CN1CCc2nc(C(=O)Nc3cc(OCC4(C(=O)O)CC4)ccc3NC(=O)c3cc4cc(Cl)ccc4[nH]3)sc2C1	1 (≈ 1.72 µM)	4 (≈ 6.9 µM)	
